# According to ChEMBL document CHEMBL1130474, “Conformationally restricted arginine analogues as inhibitors of human nitric oxide synthase” (Bioorg Med Chem Lett, 1997):
# Test system: N=C(N)NCCC[C@H](N)C(=O)O
substance,measurement,value
"Nitric oxide synthase, inducible (Homo sapiens) (sequence not shown)",Km,2.2 µM
